Reference: the supplement of paper PMC6089552
Out of some 3,200 compounds screened, about 300 (9.4%) showed activity. The entries are a selection whose mix differs from that of the whole data set.

Tested on: A673/TR/shEF
Assay: cell viability (LOESS-normalised, relative to median of negative controls) (log2 ratio); higher = more viable cells (less compound effect), active = hit call of the paper (over 3 MAD below the median)
Conditions: treatment time: 72 h
Summary of the method: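 Viability of A673/TR/shEF Ewing sarcoma cells was determined by CellTiter-Glo luminescence. The cells, at 1,500 per well in 384-well plates, were grown with or without doxycycline from 24 h before compound addition to switch on EWS-FLI1 shRNA knockdown, then exposed for three days to library compounds at two or more concentrations or to DMSO controls. Signals were LOESS-corrected plate by plate, normalised to the negative-control median and log2-transformed.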

[1] = 0.103 µM, library screen: screen3, EWS-FLI1 expression: high (no doxycycline)
[2] = 0.103 µM, library screen: screen3, EWS-FLI1 expression: low (doxycycline-induced shRNA knockdown)
[3] = 0.25 µM, library screen: screen1, EWS-FLI1 expression: high (no doxycycline)
[4] = 0.25 µM, library screen: screen1, EWS-FLI1 expression: low (doxycycline-induced shRNA knockdown)
[5] = 0.25 µM, library screen: screen2, EWS-FLI1 expression: high (no doxycycline)
[6] = 0.25 µM, library screen: screen2, EWS-FLI1 expression: low (doxycycline-induced shRNA knockdown)
[7] = 0.308 µM, library screen: screen3, EWS-FLI1 expression: high (no doxycycline)
[8] = 0.308 µM, library screen: screen3, EWS-FLI1 expression: low (doxycycline-induced shRNA knockdown)
[9] = 0.926 µM, library screen: screen3, EWS-FLI1 expression: high (no doxycycline)
[10] = 0.926 µM, library screen: screen3, EWS-FLI1 expression: low (doxycycline-induced shRNA knockdown)
[11] = 2.5 µM, library screen: screen1, EWS-FLI1 expression: high (no doxycycline)
[12] = 2.5 µM, library screen: screen1, EWS-FLI1 expression: low (doxycycline-induced shRNA knockdown)
[13] = 2.5 µM, library screen: screen2, EWS-FLI1 expression: high (no doxycycline)
[14] = 2.5 µM, library screen: screen2, EWS-FLI1 expression: low (doxycycline-induced shRNA knockdown)
[15] = 2.8 µM, library screen: screen3, EWS-FLI1 expression: high (no doxycycline)
[16] = 2.8 µM, library screen: screen3, EWS-FLI1 expression: low (doxycycline-induced shRNA knockdown)
[17] = 8.3 µM, library screen: screen3, EWS-FLI1 expression: high (no doxycycline)
[18] = 8.3 µM, library screen: screen3, EWS-FLI1 expression: low (doxycycline-induced shRNA knockdown)
[19] = 25 µM, library screen: screen3, EWS-FLI1 expression: high (no doxycycline)
[20] = 25 µM, library screen: screen3, EWS-FLI1 expression: low (doxycycline-induced shRNA knockdown)
[21] = 0.025 µM, library screen: screen1, EWS-FLI1 expression: high (no doxycycline)
[22] = 0.025 µM, library screen: screen1, EWS-FLI1 expression: low (doxycycline-induced shRNA knockdown)
[23] = 25 µM, library screen: screen1, EWS-FLI1 expression: high (no doxycycline)
[24] = 25 µM, library screen: screen1, EWS-FLI1 expression: low (doxycycline-induced shRNA knockdown)

SMILES: CCCCNc1cc(C(=O)O)cc(S(N)(=O)=O)c1Oc1ccccc1
- cell viability (log2) [1]: inactive: 0.0523
- cell viability (log2) [2]: inactive: -0.0116
- cell viability (log2) [3]: inactive: 0.146
- cell viability (log2) [4]: inactive: 0.112
- cell viability (log2) [5]: inactive: 0.271
- cell viability (log2) [6]: inactive: 0.123
- cell viability (log2) [7]: inactive: 0.0349
- cell viability (log2) [8]: inactive: 0.0222
- cell viability (log2) [9]: inactive: 0.08
- cell viability (log2) [10]: inactive: 0.102
- cell viability (log2) [11]: inactive: 0.14
- cell viability (log2) [12]: inactive: 0.15
- cell viability (log2) [13]: inactive: 0.173
- cell viability (log2) [14]: inactive: 0.0632
- cell viability (log2) [15]: inactive: 0.116
- cell viability (log2) [16]: inactive: 0.107
- cell viability (log2) [17]: inactive: 0.138
- cell viability (log2) [18]: inactive: -0.000538
- cell viability (log2) [19]: inactive: 0.135
- cell viability (log2) [20]: inactive: 0.0448

SMILES: C[C@H](Cn1cnc2c(N)ncnc21)OCP(=O)(O)O
- cell viability (log2) [1]: inactive: 0.0857
- cell viability (log2) [2]: inactive: 0.09
- cell viability (log2) [5]: inactive: 0.128
- cell viability (log2) [6]: inactive: 0.113
- cell viability (log2) [7]: inactive: 0.00908
- cell viability (log2) [8]: inactive: 0.0155
- cell viability (log2) [9]: inactive: 0.0338
- cell viability (log2) [10]: inactive: 0.0939
- cell viability (log2) [13]: inactive: 0.189
- cell viability (log2) [14]: inactive: 0.0365
- cell viability (log2) [15]: inactive: 0.0533
- cell viability (log2) [16]: inactive: 0.0269
- cell viability (log2) [17]: inactive: -0.0007
- cell viability (log2) [18]: inactive: 0.0852
- cell viability (log2) [19]: inactive: 0.0436
- cell viability (log2) [20]: inactive: 0.126

SMILES: CC(=O)Oc1ccccc1C(=O)Oc1ccccc1C(=O)O
- cell viability (log2) [3]: inactive: 0.0903
- cell viability (log2) [4]: inactive: 0.0838
- cell viability (log2) [11]: inactive: 0.129
- cell viability (log2) [12]: inactive: 0.0743

SMILES: COc1c(C(C)C)oc2cc3oc(=O)ccc3cc12
- cell viability (log2) [3]: inactive: 0.0745
- cell viability (log2) [4]: inactive: 0.0131
- cell viability (log2) [11]: inactive: 0.0973
- cell viability (log2) [12]: inactive: 0.0387

SMILES: CC(C)n1c(/C=C/C(O)CC(O)CC(=O)O)c(-c2ccc(F)cc2)c2ccccc21 (stereo unspecified)
- cell viability (log2) [17]: active: -0.668
- cell viability (log2) [18]: active: -0.538
- cell viability (log2) [19]: active: -2.7
- cell viability (log2) [20]: active: -1.87

SMILES: CCCCCC(O)c1cccc(OCc2ccc3ccccc3n2)c1 (stereo unspecified)
- cell viability (log2) [5]: inactive: 0.0916
- cell viability (log2) [6]: inactive: 0.06
- cell viability (log2) [13]: inactive: 0.0895
- cell viability (log2) [14]: inactive: 0.053

SMILES: COc1cc2ncnc(Nc3cccc(Cl)c3)c2cc1OC
- cell viability (log2) [21]: inactive: 0.237
- cell viability (log2) [22]: inactive: 0.01
- cell viability (log2) [3]: 0.289
- cell viability (log2) [4]: inactive: 0.0337
- cell viability (log2) [5]: inactive: 0.134
- cell viability (log2) [6]: inactive: 0.0168
- cell viability (log2) [11]: active: -0.137
- cell viability (log2) [12]: inactive: 0.122
- cell viability (log2) [13]: inactive: 0.175
- cell viability (log2) [14]: inactive: 0.00846
- cell viability (log2) [23]: active: -0.119
- cell viability (log2) [24]: 0.297

SMILES: O=c1oc2cc(O)ccc2s1
- cell viability (log2) [1]: inactive: -0.0407
- cell viability (log2) [2]: inactive: 0.0636
- cell viability (log2) [3]: inactive: 0.062
- cell viability (log2) [4]: inactive: 0.039
- cell viability (log2) [7]: inactive: 0.0118
- cell viability (log2) [8]: inactive: 0.0239
- cell viability (log2) [9]: inactive: -0.0187
- cell viability (log2) [10]: inactive: 0.0384
- cell viability (log2) [11]: inactive: 0.12
- cell viability (log2) [12]: inactive: 0.0991
- cell viability (log2) [15]: inactive: 0.0497
- cell viability (log2) [16]: inactive: 0.0966
- cell viability (log2) [17]: inactive: -0.0359
- cell viability (log2) [18]: inactive: 0.0991
- cell viability (log2) [19]: inactive: -0.142
- cell viability (log2) [20]: inactive: 0.0552

SMILES: CC(=O)Oc1cc(-c2coc3cc(OC(C)=O)c(OC(C)=O)c(OC(C)=O)c3c2=O)cc(OC(C)=O)c1OC(C)=O
- cell viability (log2) [3]: inactive: 0.0397
- cell viability (log2) [4]: inactive: -0.0292
- cell viability (log2) [11]: inactive: 0.0912
- cell viability (log2) [12]: inactive: -0.0545

SMILES: O=C(O)c1ccccc1O
- cell viability (log2) [3]: inactive: 0.145
- cell viability (log2) [4]: inactive: 0.132
- cell viability (log2) [11]: inactive: 0.122
- cell viability (log2) [12]: inactive: 0.244

SMILES: CCOC(=O)c1cnc2c(cnn2CC)c1NN=C(C)C
- cell viability (log2) [5]: inactive: 0.197
- cell viability (log2) [6]: inactive: 0.0927
- cell viability (log2) [13]: inactive: 0.0502
- cell viability (log2) [14]: inactive: 0.0616

SMILES: NC(=O)c1ccc(I)c([N+](=O)[O-])c1
- cell viability (log2) [1]: inactive: -0.0936
- cell viability (log2) [2]: inactive: 0.0142
- cell viability (log2) [7]: inactive: -0.0721
- cell viability (log2) [8]: inactive: -0.0195
- cell viability (log2) [9]: inactive: 0.0208
- cell viability (log2) [10]: inactive: 0.0718
- cell viability (log2) [15]: inactive: 0.0293
- cell viability (log2) [16]: inactive: 0.0487
- cell viability (log2) [17]: inactive: 0.0217
- cell viability (log2) [18]: inactive: 0.061
- cell viability (log2) [19]: inactive: -0.0148
- cell viability (log2) [20]: inactive: 0.0274

SMILES: O=C(O)c1cc2cc(Cc3cccnc3)ccc2o1
- cell viability (log2) [3]: inactive: 0.0601
- cell viability (log2) [4]: inactive: 0.0474
- cell viability (log2) [5]: inactive: 0.277
- cell viability (log2) [6]: inactive: 0.0253
- cell viability (log2) [11]: inactive: 0.137
- cell viability (log2) [12]: inactive: 0.0202
- cell viability (log2) [13]: inactive: 0.00879
- cell viability (log2) [14]: inactive: 0.149

SMILES: C=C1c2cccc(O)c2C(O)=C2C(=O)[C@]3(O)C(O)=C(C(N)=O)C(=O)[C@@H](N(C)C)[C@@H]3[C@@H](O)[C@H]12
- cell viability (log2) [3]: active: -0.16
- cell viability (log2) [11]: active: -0.0967

SMILES: C[C@@H]1[C@H]2[C@H](O[C@@H]3O[C@H](CO)[C@@H](O)[C@H](O)[C@H]3O)OC=C(C(=O)O)[C@H]2C[C@@H]1O
- cell viability (log2) [3]: inactive: 0.0698
- cell viability (log2) [4]: inactive: 0.0626
- cell viability (log2) [11]: inactive: 0.106
- cell viability (log2) [12]: inactive: -0.0365

SMILES: O=C(O)c1cc(N(Cc2ccccc2O)Cc2cc(O)ccc2O)ccc1O
- cell viability (log2) [21]: inactive: 0.17
- cell viability (log2) [22]: inactive: 0.0496
- cell viability (log2) [3]: inactive: 0.173
- cell viability (log2) [4]: inactive: 0.132
- cell viability (log2) [11]: inactive: 0.0556
- cell viability (log2) [12]: inactive: 0.0297
- cell viability (log2) [23]: inactive: 0.0931
- cell viability (log2) [24]: inactive: 0.144
